Results as given in PMC4336329 (PLoS ONE, 2015).
About 14,000 (4.5%) of roughly 310,000 compounds showed an effect of 50% or more. The effect is printed as a negative number. This is one part of the list.

Molecular target: human ether-à-go-go-related gene (hERG) potassium channel (human, UniProt Q12809)
Assay: primary screen, population patch clamp on CHO cells stably expressing hERG
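Note: peak tail current of the secondary pulse compared with the same well before compound.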

human ether-à-go-go-related gene (hERG) potassium channel, sequence (Q12809 whole entry, looked up): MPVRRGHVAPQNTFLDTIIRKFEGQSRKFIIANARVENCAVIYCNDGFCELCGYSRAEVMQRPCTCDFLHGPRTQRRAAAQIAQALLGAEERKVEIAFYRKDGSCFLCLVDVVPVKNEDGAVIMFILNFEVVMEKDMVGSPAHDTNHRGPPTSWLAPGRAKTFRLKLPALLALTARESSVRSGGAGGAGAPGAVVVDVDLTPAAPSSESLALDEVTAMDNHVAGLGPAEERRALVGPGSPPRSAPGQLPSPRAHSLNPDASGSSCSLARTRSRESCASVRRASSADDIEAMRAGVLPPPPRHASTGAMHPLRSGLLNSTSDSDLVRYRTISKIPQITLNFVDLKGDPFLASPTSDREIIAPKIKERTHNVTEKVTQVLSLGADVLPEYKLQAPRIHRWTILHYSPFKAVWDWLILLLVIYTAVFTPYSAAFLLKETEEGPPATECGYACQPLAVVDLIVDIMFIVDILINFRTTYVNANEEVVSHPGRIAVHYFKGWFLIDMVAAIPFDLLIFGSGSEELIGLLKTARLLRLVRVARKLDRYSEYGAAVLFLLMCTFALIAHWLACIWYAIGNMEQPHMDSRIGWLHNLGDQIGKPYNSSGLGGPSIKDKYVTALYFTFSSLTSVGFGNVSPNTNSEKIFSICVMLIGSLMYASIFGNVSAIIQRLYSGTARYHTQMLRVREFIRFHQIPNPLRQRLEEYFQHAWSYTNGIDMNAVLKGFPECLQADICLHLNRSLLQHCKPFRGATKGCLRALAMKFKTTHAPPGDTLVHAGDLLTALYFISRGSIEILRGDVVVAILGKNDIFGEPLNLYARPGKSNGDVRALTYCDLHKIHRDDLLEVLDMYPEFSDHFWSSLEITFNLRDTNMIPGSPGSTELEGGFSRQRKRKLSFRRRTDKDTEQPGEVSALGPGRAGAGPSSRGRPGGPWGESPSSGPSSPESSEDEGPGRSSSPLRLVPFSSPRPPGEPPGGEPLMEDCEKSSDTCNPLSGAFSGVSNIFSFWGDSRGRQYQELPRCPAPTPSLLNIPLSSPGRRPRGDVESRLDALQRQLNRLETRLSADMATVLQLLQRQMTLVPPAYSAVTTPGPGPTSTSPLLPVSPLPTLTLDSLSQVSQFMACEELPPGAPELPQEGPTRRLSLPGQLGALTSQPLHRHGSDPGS

SMILES | hERG current change (%, negative = inhibition) at 10uM
CN1CCN(C(=O)c2ccc3nc(-c4ccccc4)c(-c4ccccc4)nc3c2)CC1 | 6.03%
Cc1ccc(C)c(NC(=S)N2CCC(c3nc4ccccc4s3)CC2)c1 | 5.95%
CCc1ccc(OCC(=O)NC(NC(=S)Nc2ccc(C)cc2C)C(Cl)(Cl)Cl)cc1 (stereo not shown) | 5.54%
CCOC(=O)Cc1csc(NC(=O)CC(C)(C)CC(=O)O)n1 | 3.83%
Cc1ccc(-c2n[nH]c(=S)n2/N=C/c2c(C)nn(-c3ccccc3)c2C)cc1 | -34.5%
CCc1nc(N)c(C#N)c(-c2ccccc2OC)c1C | -14.1%
O=C(O)C(O)(c1ccccc1)C1CCCCC1 (stereo not shown) | -14.1%
CCOC(=O)N1N=C(C)CC1(O)c1ccc(Cl)cc1 (stereo not shown) | 11.9%
CC(C)C(=O)Nc1nnc(CSCc2ccccc2F)s1 | -3.32%
COc1ccc(CCNC(=O)C(C(=O)c2ccc(F)cc2)n2ccccc2=O)cc1OC (stereo not shown) | -0.85%
Cc1ccc(NC(=O)Cn2nnc(C(=O)NCc3ccc(Cl)cc3)c2N)cc1F | 13.7%
O=C(O)c1cc([N+](=O)[O-])c(N2CCCC2)c([N+](=O)[O-])c1 | 2.9%
CC1(c2ccc(OCC#N)cc2)C=C(c2ccc(OCC#N)cc2)n2nc(C(F)(F)F)nc2N1 (stereo not shown) | -9.2%
Cc1ccc(-c2noc(CNC(=O)COc3ccccc3C)n2)cc1 | 4.55%
Cc1ccc(Cn2c(=N)c(S(=O)(=O)c3ccc(Br)cc3)cc3c(=O)n4ccccc4nc32)cc1 | -6.27%
CN(C)CC(=O)N1CCc2ccccc2C1.O=C(O)C(=O)O | 13.2%
CC(C)(C)NC(=O)CCn1nc(-c2ccc(Cl)cc2)c2ccccc2c1=O | -32.3%
Fc1cccc(CN2CCN3CCCC3C2C2CCCCC2)c1 (stereo not shown) | -8.93%
COc1cc(C(=O)NCCc2ccccc2)ccc1OCC(=O)N1CCOCC1 | 3.77%
CCOC(=O)c1cnc(Nc2nc3ccccc3o2)nc1CSC(=S)N1CCCCC1 | 10%
N#CCCN(C(=O)CSc1nc2nc(-c3cccs3)cc(C(F)(F)F)c2c(=O)[nH]1)c1ccccc1 | 19.9%
C=C1C[C@@]23CCC4[C@@](C)(CCC[C@@]4(C)C(=O)OC)C2CC[C@]1(OC(C)=O)C3 (stereo partly shown) | 10.8%

SMILES | hERG current change (%, negative = inhibition) at 10uM
CN1C(=O)C(CC(=O)Nc2ccc(F)cc2)N(NC(=O)c2cccc(F)c2)C1=S (stereo not shown) | -3.79%
O=C(N/N=C/c1ccc[nH]1)c1ccc2c(c1)OCO2 | 13.9%
Cc1cc(-c2nnnn2-c2ccc(C(F)(F)F)cc2)no1 | -4.29%
Cc1nn(-c2ccccc2)c(Cl)c1/C=N/NC(=O)CCNc1n[nH]c(=O)[nH]c1=O | 13.1%
CCOC(=O)C1CCN(C(=O)C2CCN(S(=O)(=O)N3CCCC3)CC2)CC1 | -64.9%
Cc1ccc(/C=C2\NC(=S)NC2=O)cc1[N+](=O)[O-] | 22.7%
COc1ccc(NC(=O)CCC(=O)OCc2ccc([N+](=O)[O-])cc2)cc1 | -4.12%
CC(=O)N1N=C(c2ccco2)CC1c1cccs1 (stereo not shown) | 16%
COc1c2c(nc3occc13)C(CC=C(C)C)(OC)C(O)CC2 (stereo not shown) | 5.5%
COc1ccc(CCC(=O)NCc2cn3ccc(C)cc3n2)cc1 | -52%
O=C(NCC(O)c1ccccc1)Nc1cccs1 (stereo not shown) | 12.6%
Cc1ccc(-c2nnc(SCC#CCOC(=O)c3cccs3)o2)cc1 | 14.3%
COc1ccc(S(=O)(=O)NCc2ccccn2)cc1NC(=O)c1ccc(Cl)cc1 | -68.8%
O=C(COc1ncnc2ccc(Br)cc12)NCc1ccc2c(c1)OCO2 | -2.32%
FC(F)(F)c1ccnc(NCc2ccco2)n1 | 8.44%
COc1cc(NS(=O)(=O)c2c(C(=O)N3CCOCC3)c(C)n(C)c2C)cc(OC)c1OC | 12.4%
CCOc1ccc(-n2c(SCc3ccc([N+](=O)[O-])cc3)nnc2-c2ccccc2)cc1 | 4.93%
Cc1ccc2cc(CCNC(=O)c3cc4ccccc4o3)c(=O)[nH]c2c1C | 8.51%
Cc1ccccc1N(C(=O)Cc1cccs1)C(C(=O)NC1CCCCC1)c1cn(C)nc1C (stereo not shown) | -9.52%
O=C(c1cc(F)ccc1F)C1CCCN(Cc2ccc3nonc3c2)C1 (stereo not shown) | -12%
CNS(=O)(=O)c1cn(CC(=O)NCc2ccc(N(C)C)cc2)cc1S(=O)(=O)NC | 2.01%
CCCN(CCC)C(=O)Cn1ccc(=N)c2ccccc21.Cl | 7.03%

SMILES | hERG current change (%, negative = inhibition) at 10uM
Cc1cccc(NC(=O)C2CCCN(C(=O)NC3CCCCC3)C2)c1C (stereo not shown) | -3.65%
CC(C)(C)c1ccc(OCC(=O)NNC(=O)Cc2cccs2)cc1 | -28.8%
CCc1c(C)sc(NC(=O)Cc2ccccc2C)c1C(=O)N1CCOCC1 | 16.1%
O=C(CNS(=O)(=O)c1cccs1)NCCc1ccc(Cl)cc1 | -9.57%
COC(=O)CN1C(=O)C(O)(CC(=O)c2ccc(C)o2)c2ccccc21 (stereo not shown) | 13.6%
Cc1nnc(SCC(=O)NNC(=O)c2ccccc2)n1-c1ccccc1 | 0.302%
CC(Oc1cccc(Cl)c1)C(=O)Nc1ccccc1N1CCCCC1 (stereo not shown) | 0.371%
COC(=O)c1ccc(COC(=O)c2ccccc2OC)cc1 | 0.631%
Cc1ccc(NC(=S)N(CCCN2CCCC2)Cc2cccn2Cc2ccc(Cl)cc2)cc1Cl | 6.99%
COc1ccc(C(=O)C2CN(C)CC2c2ccc(Cl)cc2)cc1 (stereo not shown) | -73.1%
COc1ccccc1NC(=O)C1=C(C)Nc2ncnn2C1c1ccc(C)o1 (stereo not shown) | 7.95%
Fc1cccc(Cl)c1CSc1nnc(COc2cccc3cccnc23)o1 | -10.4%
CCOC(=O)C1C(c2ccccc2)NC(=S)NC1(C)O (stereo not shown) | 24.8%
CCC(C)(C)c1ccc(OCCCC[n+]2ccc(C)cc2)c(C(C)(C)CC)c1.[Br-] | -75.7%
CCN(CC)S(=O)(=O)c1ccc2[nH]c(=O)c3ccccc3c2c1 | -1.85%
COc1cccc(N2CC(C(=O)Nc3nnc(SCC(=O)Nc4cc(C)on4)s3)CC2=O)c1 (stereo not shown) | 11.3%
O=C(NC1CC1)c1ccc(-n2cccc2)cc1 | 21.1%
COc1cc(/C=N/NC(=O)C(Cc2c[nH]c3ccccc23)NC(=O)OCC(C)C)cc([N+](=O)[O-])c1O (stereo not shown) | 12.8%
CCC(=O)NCCc1nc2ccccc2[nH]1 | 1.08%
COc1ccc(C(=O)N2CCN(c3ccccc3OC)CC2)cc1 | 21%
COc1cccc(NC(=S)/C(=C(\[O-])c2ccc(C)c([N+](=O)[O-])c2)[n+]2ccccc2)c1 | -12.9%
O=S(=O)(NCCC(c1ccc(F)cc1)c1ccco1)c1ccccc1 (stereo not shown) | -7.77%

SMILES | hERG current change (%, negative = inhibition) at 10uM
Cc1ccc(S(=O)(=O)N(CC(O)CN2C(=O)NC(C)(C)C2=O)c2cccc([N+](=O)[O-])c2)cc1 (stereo not shown) | 1.04%
Cn1c(SCC(=O)Nc2ccc(NC(=O)c3cccc(F)c3)cc2)nnc1-c1ccncc1 | 9.76%
c1cc2c3c(cccc3c1)NC1(CCCCCC1)N2 | -0.708%
C/C(=N/NC(=O)CSc1nc2ccccc2n1C)c1ccco1 | -1.16%
O=C(CSc1nccc(=O)[nH]1)Nc1ccc(F)c([N+](=O)[O-])c1 | 2.7%
CCCNC(=O)COc1coc(CN2CCN(Cc3ccccc3)CC2)cc1=O | 9.76%
COc1cccc(OC)c1C(=O)NC(=S)Nc1cc(-c2nc3ccccc3[nH]2)ccc1Cl | 1.06%
CN1CCN(c2ncnc3sc(-c4ccccc4)cc23)CC1 | -49.4%
CCOCCCNC(=O)c1cc2c(s1)-c1ccccc1SC2 | -5.28%
CCNC(=O)NC(=O)COC(=O)c1cccc(S(=O)(=O)N2CC3(C)CC2CC(C)(C)C3)c1 (stereo not shown) | -7.09%
O=C(NCCS(=O)(=O)NC1CCCC1)c1ccccc1 | -0.0158%
CCn1ccnc1CC1COc2ccccc2O1.Cl (stereo not shown) | -8.07%
COC(=O)NC(Nc1sc2c(c1C(N)=O)CCCC2)(C(=O)OC)C(F)(F)F (stereo not shown) | 19.7%
COC(=O)CCc1n[nH]c(=O)[nH]c1=O | 4.98%
O=C(Nc1ncccc1O)c1ccc(S(=O)(=O)N2CCCCCC2)cc1 | 5.29%
COC(=O)[C@@H](N)Cc1ccc(O)cc1 | 18.3%
COc1ccc(NC2CCCN(Cc3cccc4cnccc34)C2)cc1 (stereo not shown) | -18.5%
COc1ccccc1NC(=O)CCn1cccc1 | 8.38%
CC(C)(C)C1CCc2c(C(=O)NNC(=O)CCC(=O)O)csc2C1 (stereo not shown) | 3.34%
COC(=O)c1ccc(Cl)c(S(=O)(=O)N2CCCC2)c1 | 16.8%
Cc1cc(NC(=O)c2ccc3c(c2)C(=O)N(C2CCCCC2)C3=O)no1 | 8.78%
C[C@]1(C(=O)O)Cc2oncc2C[C@@H]1C(=O)O | 6.58%
